Here are results for 44 compounds from article PMC4336329 (PLoS ONE, 2015).

In all, about 310,000 compounds went through this assay and about 14,000 (4.5%) showed an effect of 50% or more. Effects have a minus sign here. The list shows a part of the results.
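Further: peak tail current of the secondary pulse compared with the same well before compound.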

For this experiment, the target named is human ether-à-go-go-related gene (hERG) potassium channel (human, UniProt Q12809). Nature of the experiment: primary screen, population patch clamp on CHO cells stably expressing hERG.
human ether-à-go-go-related gene (hERG) potassium channel, sequence (Q12809 whole entry, looked up): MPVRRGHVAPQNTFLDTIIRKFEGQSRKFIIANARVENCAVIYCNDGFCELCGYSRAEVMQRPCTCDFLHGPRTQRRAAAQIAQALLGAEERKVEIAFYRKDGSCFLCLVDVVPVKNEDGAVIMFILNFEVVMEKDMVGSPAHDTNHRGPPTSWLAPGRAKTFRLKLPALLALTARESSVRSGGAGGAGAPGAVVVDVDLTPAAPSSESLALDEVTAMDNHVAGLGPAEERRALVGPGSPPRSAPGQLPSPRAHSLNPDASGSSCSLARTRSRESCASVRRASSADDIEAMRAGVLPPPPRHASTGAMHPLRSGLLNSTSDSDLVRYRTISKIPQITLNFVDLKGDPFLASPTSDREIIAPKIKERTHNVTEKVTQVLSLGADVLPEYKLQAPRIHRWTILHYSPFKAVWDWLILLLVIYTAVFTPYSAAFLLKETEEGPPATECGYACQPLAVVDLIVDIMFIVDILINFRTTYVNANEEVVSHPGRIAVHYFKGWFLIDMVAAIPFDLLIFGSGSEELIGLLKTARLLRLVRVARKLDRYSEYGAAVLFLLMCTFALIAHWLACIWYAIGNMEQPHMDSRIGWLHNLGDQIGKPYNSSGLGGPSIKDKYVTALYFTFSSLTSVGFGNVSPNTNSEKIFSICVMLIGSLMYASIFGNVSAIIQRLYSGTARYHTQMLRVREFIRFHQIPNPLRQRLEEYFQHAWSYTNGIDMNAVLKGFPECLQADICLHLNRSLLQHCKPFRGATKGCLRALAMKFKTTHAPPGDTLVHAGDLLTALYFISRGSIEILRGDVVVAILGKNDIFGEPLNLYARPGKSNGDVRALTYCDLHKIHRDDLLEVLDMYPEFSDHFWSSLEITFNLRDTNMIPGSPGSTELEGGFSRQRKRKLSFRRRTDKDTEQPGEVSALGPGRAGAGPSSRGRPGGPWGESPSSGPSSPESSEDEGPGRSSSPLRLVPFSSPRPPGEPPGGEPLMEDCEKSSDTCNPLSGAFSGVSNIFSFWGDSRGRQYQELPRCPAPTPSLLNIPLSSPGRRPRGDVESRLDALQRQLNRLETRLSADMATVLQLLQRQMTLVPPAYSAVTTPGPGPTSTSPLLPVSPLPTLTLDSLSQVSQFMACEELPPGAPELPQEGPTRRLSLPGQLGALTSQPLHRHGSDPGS
`CC(C)(C)C1CCC2(CC1)SCC(=O)N2c1ccccc1` (centres unmarked): the “hERG current change (%, negative = inhibition) at 10uM” value is 13.6%.
For the compound `CC1CCN(C(=O)c2ccccc2NC(=O)Nc2ccccc2)CC1`, the “hERG current change (%, negative = inhibition) at 10uM” value is given as -4.25%.
Regarding `CCC(C)(C)n1nnnc1C(c1ccncc1)N1CCC(C)CC1` (centres unmarked), the “hERG current change (%, negative = inhibition) at 10uM” value was -23.1%.
In the case of `CS(=O)(=O)N(CC(=O)NCc1ccccc1Cl)c1cccc([N+](=O)[O-])c1`, the “hERG current change (%, negative = inhibition) at 10uM” value is on record as 5.22%.
For the compound `COc1cc(NC(=O)CCC(=O)c2cccs2)cc(OC)c1`, the “hERG current change (%, negative = inhibition) at 10uM” value is 20%.
As for `CC(C)(C)SCCNC(=O)c1ccc(CN2CCc3ccccc3C2)cc1`, the figure is -35.1%.
Regarding `CN(C)N1C(=O)CC(N2CCCC2)C1=O.Cl` (centres unmarked), the “hERG current change (%, negative = inhibition) at 10uM” value worked out at 13.6%.
`CCC1(c2ccccc2)NC(=O)N(CC(=O)Nc2ccccc2C(=O)NC2CC2)C1=O` (centres unmarked): the “hERG current change (%, negative = inhibition) at 10uM” value is recorded as -7.31%.
In the case of `O=C(OCCOCCN=C1NS(=O)(=O)c2ccccc21)c1ccccc1Br`, the “hERG current change (%, negative = inhibition) at 10uM” value is given as -19.4%.
`COCCn1cc(C(=O)NCCN(C)C)c2c3ccccc3n(C)c2c1=O`: the “hERG current change (%, negative = inhibition) at 10uM” value is reported as -14%.
Turning to `CCN(CC(=O)Nc1ccc2c(c1)OCCO2)Cc1nc2cc(Cl)ccc2c(=O)[nH]1`, the “hERG current change (%, negative = inhibition) at 10uM” value is on record as -29%.
Turning to `Cc1ccc(CC(=O)NC2CCCc3ccccc32)cc1C` (centres unmarked), the “hERG current change (%, negative = inhibition) at 10uM” value amounted to 5.63%.
Take `Cc1cc(C(=O)N2CCN(Cc3ccc4c(c3)OCO4)CC2)on1`: the “hERG current change (%, negative = inhibition) at 10uM” value is reported as -4.02%.
With `O=C(NCc1ccco1)/C(=C/c1ccccc1)NC(=O)c1ccco1`, the “hERG current change (%, negative = inhibition) at 10uM” value stood at 4.72%.
For the compound `COc1ccc(C(CC(=O)O)NC(=O)COc2cc(C)ccc2C)cc1OC` (centres unmarked), the “hERG current change (%, negative = inhibition) at 10uM” value was 21.2%.
Take `CN(C(=O)C1CCC(CNS(=O)(=O)c2cccc3cccnc23)CC1)C1CCCCC1` (centres unmarked): the “hERG current change (%, negative = inhibition) at 10uM” value is listed as -29.4%.
As for `CCn1c(=O)n(CCOC)c(=O)c2c3c(sc21)CCCC3`, the “hERG current change (%, negative = inhibition) at 10uM” value is -10.1%.
The value for `Cc1sc2ncnc(N3CCC(C)CC3)c2c1C` was -11.3%; that for `Cc1ccc(SC(C)C(=O)NCc2ccncc2)cc1` (centres unmarked) was 12.1%.
On to `CCCCC1CC(CSc2ncn[nH]2)OC1=O` (centres unmarked), for which the “hERG current change (%, negative = inhibition) at 10uM” value is 8.14%.
In the case of `Cc1ccccc1CNC(=O)c1ccc(CSCc2ccccc2)cc1`, the “hERG current change (%, negative = inhibition) at 10uM” value was -2.56%.
As for `Cc1c(CC(=O)N[C@@H](C)C(=O)O)c(=O)oc2cc3c(cc12)CCC(C)(C)O3`, the “hERG current change (%, negative = inhibition) at 10uM” value was found to be 19.7%.
As to `CN(Cc1ccc2nonc2c1)Cc1nc(Cc2cccc(F)c2)no1`, the “hERG current change (%, negative = inhibition) at 10uM” value is reported as -35.4%.
As for `Cc1ccc2c(c1)N(S(=O)(=O)c1ccc(CN3C(=O)c4cccnc4C3=O)cc1)CCO2`, the “hERG current change (%, negative = inhibition) at 10uM” value came out at 18%.
The value for `COc1cccc(OCC(O)CN2CCN(C)CC2)c1.O=C(O)C(=O)O` (centres unmarked) was 16.2%.
As to `Cc1ccccc1NS(=O)(=O)c1nnc(NC(=O)c2ccccc2C)s1`, the “hERG current change (%, negative = inhibition) at 10uM” value is listed as -24.1%.
As for `COc1ccc2oc(C(=O)c3ccccc3)c(N)c2c1`, the “hERG current change (%, negative = inhibition) at 10uM” value was determined as 4.76%.
For `Cc1cnc(C(=O)Nc2ccc(C(C)C)cc2)cn1`, the “hERG current change (%, negative = inhibition) at 10uM” value is -14%.
The value for `CC1(C)Cc2c(c(-c3ccco3)nc3sc4c(NCC5CCCO5)ncnc4c23)CO1` (centres unmarked) was 0.368%.
Take `COc1ccccc1N(Cc1cc2cccc(C)c2[nH]c1=O)C(=O)C(C)C`: the “hERG current change (%, negative = inhibition) at 10uM” value is -2.2%.
`COc1ccc(CN(C)c2ncnc(N)n2)cc1`: the “hERG current change (%, negative = inhibition) at 10uM” value came out at 11.5%.
For `O=C(CCCc1nc(-c2ccccc2)no1)NC1CCCC1`, the “hERG current change (%, negative = inhibition) at 10uM” value was -12.2%.
As to `Cc1n(C)c2cc(Cl)ccc2[n+]1Cc1ccccc1.[I-]`, the “hERG current change (%, negative = inhibition) at 10uM” value is reported as -3.49%.
Turning to `COC(=O)[C@H](CC(C)C)NC(=O)Nc1ccc(F)cc1`, the “hERG current change (%, negative = inhibition) at 10uM” value came out at 5.58%.
For the compound `COc1ccc(C2CC(c3ccc4ccccc4c3)=NN2C(=O)CNC2CCCCC2)cc1` (centres unmarked), the “hERG current change (%, negative = inhibition) at 10uM” value was -21.2%.
As for `COc1ccc(NC(=O)n2ncc3c(C)cccc32)cc1`, the figure is 20.5%; as for `COc1cc(NC(=S)N2CCN(C(=O)c3ccco3)CC2)c(OC)cc1Cl`, -25.8%.
In the case of `O=C(COc1ccccc1Cl)Nc1cccc(S(=O)(=O)NC2=NCCCCC2)c1`, the “hERG current change (%, negative = inhibition) at 10uM” value is -5.14%.
As to `CC(NC(=O)C1CCC1)c1ccc(Br)cc1` (centres unmarked), the “hERG current change (%, negative = inhibition) at 10uM” value is on record as -17.5%.
Turning to `O=C(Nc1nc2ccccc2[nH]1)c1ccc(Cl)cc1`, the “hERG current change (%, negative = inhibition) at 10uM” value came out at 20.8%.
The value for `O=C(COC(=O)/C=C/c1ccc(S(=O)(=O)N2CCOCC2)cc1)NCc1ccc(Cl)cc1` was 1.35%.
As for `O=C(NCc1ccncc1)C(=O)NC1CC1`, the “hERG current change (%, negative = inhibition) at 10uM” value amounted to 18.9%.
In the case of `Cc1cc(Br)ccc1NC(=O)CNC(=O)COc1ccccc1C`, the “hERG current change (%, negative = inhibition) at 10uM” value was 7.86%.
On to `Cc1ccc(C)c(NS(=O)(=O)c2ccc3c(c2)NC(=O)CO3)c1`, for which the “hERG current change (%, negative = inhibition) at 10uM” value is on record as -5.83%.
